Experimental data published in patent US9439918B2 (priority 2008, dated 2016).
≈ marks a conversion by molar mass, not a printed value. Read-outs that look alike come from different tables or passages of the source.

Legend:
THP-1 macrophages = test: Cellular accumulation, microbiological assay; assay type: in vitro ADME, human
[1] = system: phagocytized S. aureus ATCC 25923; assay type: cell-based, Staphylococcus aureus
S. aureus ATCC 25923 [2] = assay type: cell-based, Staphylococcus aureus
S. aureus ATCC 25923 [3] = assay type: cell-based, Staphylococcus aureus; conditions: pH 7.4
S. aureus (ATCC 29213) = test: Time kill curve; assay type: cell-based; conditions: tested at 2×, 4×, 8×MIC
[4] = system: S. epidermidis (095-2777A); test: Time kill curve; assay type: cell-based; conditions: tested at 2×, 4×, 8×MIC
E. faecalis (ATCC 29212) = test: Time kill curve; assay type: cell-based; conditions: tested at 2×, 4×, 8×MIC
S. pneumoniae (075-241B) = test: Time kill curve; assay type: cell-based; conditions: tested at 2×, 4×, 8×MIC
S. pyogenes (117-1612A) = test: Time kill curve; assay type: cell-based; conditions: tested at 2×, 4×, 8×MIC

## CC[C@H]1OC(=O)[C@H](C)C(=O)[C@H](C)[C@@H](O[C@@H]2O[C@H](C)C[C@H](N(C)C)[C@H]2O)[C@](C)(OC)C[C@@H](C)C(=O)[C@H](C)[C@H]2N(CCCCn3cnc(-c4cccnc4)c3)C(=O)O[C@]12C [TEL, telithromycin]
THP-1 macrophages; gemfibrozil, MRP inhibitor
  effect of gemfibrozil on cellular accumulation: Neither verapamil nor gemfibrozil affected the accumulation
THP-1 macrophages; verapamil, Pgp inhibitor
  effect of verapamil on cellular accumulation: Neither verapamil nor gemfibrozil affected the accumulation
[1]
  Emax, CFU decrease at 24 h from original inoculum: −0.29 log10 units
  Emax, Δ log10 CFU at 24 h compared to the post-phagocytosis inoculum: −0.29 Δ log10 CFU
  Intracellular activity (24 h), Emax: −0.4 ± 0.2 Δ log cfu from time 0 h
  Static dose: ~0.28 mg/L
S. aureus ATCC 25923 [2]
  Cs: 0.29 mg/L
  Emax, CFU decrease at 24 h from original inoculum: −1.00 log10 units
S. aureus ATCC 25923 [2]; pH 5.5
  Extracellular activity (24 h), Emax: −1.4 ± 0.9 Δ log cfu from time 0 h
S. aureus ATCC 25923 [2]; pH 7.4
  Cs: 0.96 x MIC
  Extracellular activity (24 h), Emax: −1.0 ± 0.4 Δ log cfu from time 0 h
S. aureus ATCC 25923 [3]
  MIC: 0.5 µg/mL (≈ 0.616 µM)
S. aureus (ATCC 29213)
  Antimicrobial activity (time kill curve): Cidal at 8X only
[4]
  Antimicrobial activity (time kill curve): Static
E. faecalis (ATCC 29212)
  Antimicrobial activity (time kill curve): Static
S. pneumoniae (075-241B)
  Antimicrobial activity (time kill curve): Static
S. pyogenes (117-1612A)
  Antimicrobial activity (time kill curve): Cidal at 8X only (slow killing)
